Laboratory results from PubChem BioAssay AID1259407 (Chemical Carcinogenesis Research Information System (CCRIS), 2018).
A number of entries come with more than one value. They are shown here; other results are not. How the calls were made is not given here. The source may hold further records. Results that share an entry repeat one measurement across runs, samples, wells, individuals or studies. What stands in brackets tells the records apart. Letters hold for one entry only.

System: CCRIS mutagenicity, Ames/micronucleus/aberration tests
Assay: CCRIS mutagenicity studies
[1] = Test System: AMES SALMONELLA TYPHIMURIUM, Strain/Indicator: TA98, Metabolic Activation: NONE, Method: STANDARD PLATE
[2] = Test System: AMES SALMONELLA TYPHIMURIUM, Strain/Indicator: TA98, Metabolic Activation: RAT, LIVER, S-9, AROCLOR 1254, Method: STANDARD PLATE
[3] = Test System: AMES SALMONELLA TYPHIMURIUM, Strain/Indicator: TA100, Metabolic Activation: NONE, Method: STANDARD PLATE

SMILES	mutagenic call [1]	mutagenic call [2]	mutagenic call [3]	other results
CC(=O)Nc1ccc2ccc3ccc(O)c4ccc1c2c34	inactive; negative [study A, 0.1 to 5 µg/plate] and active; positive [study B, 0.01 to 5 µg/plate]	inactive; negative [study A, 0.1 to 5 µg/plate] and active; positive [study B, 0.01 to 5 µg/plate]	–	–
COc1c(Cl)c(Cl)c(Cl)c(Cl)c1Cl	–	–	–	mutagenic call (Test System: AMES SALMONELLA TYPHIMURIUM, Strain/Indicator: TA98, Metabolic Activation: NONE, Method: PREINCUBATION): active; positive [study A, 100 to 10000 µg/plate] and inactive; negative [study B, 10 to 1000 µg/plate]
COC(=O)[C@H]1O[C@@H]1c1ccccc1	–	–	inactive; negative [sample A, 0 to 15000 µg/plate] and active; positive [sample B, 1500 to 3000 µg/plate]	–
O=C(/C=C/c1ccccc1)c1ccc([N+](=O)[O-])cc1	inactive; negative [study A] and active; positive [study B]	inactive; negative [study A] and active; positive [study B]	–	–
CC(C)COS(=O)(=O)c1ccccc1	–	–	inactive; negative [sample A, 15 to 5000 µg/plate] and active; positive [sample B, 15 to 5000 µg/plate]	mutagenic call (End Point: IN VITRO MICRONUCLEUS, Test System: MOUSE LYMPHOMA L5178Y CELLS, Metabolic Activation: NONE): inactive; negative [sample A, 100 to 1000 µg/mL] and active; positive [sample B, 100 to 1000 µg/mL]; mutagenic call (End Point: IN VITRO MICRONUCLEUS, Test System: MOUSE LYMPHOMA L5178Y CELLS, Metabolic Activation: RAT, LIVER, S-9): inactive; negative [sample A, 100 to 1000 µg/mL] and active; positive [sample B, 100 to 1000 µg/mL]
CC1=CC(=O)c2ccccc2C1=O	–	–	–	mutagenic call (Test System: AMES SALMONELLA TYPHIMURIUM, Strain/Indicator: TA100, Metabolic Activation: NONE, Method: PREINCUBATION): inactive; negative [study A] and active; positive [study B]; mutagenic call (Test System: AMES SALMONELLA TYPHIMURIUM, Strain/Indicator: TA104, Metabolic Activation: NONE, Method: PREINCUBATION): inactive; negative [study A] and active; positive [study B]
